Data from ChEMBL document CHEMBL4888484, “Replenishing the malaria drug discovery pipeline: Screening and hit evaluation of the MMV Hit Generation Library 1 (HGL1) against asexual blood stage Plasmodium falciparum ,using a nano luciferase reporter read-out” (2022).
The campaign covered roughly 150,000 compounds. About 540 (0.36%) showed an effect of 50% or more. The list shows a part of the results.

What follows are compounds tested on Plasmodium falciparum (assay: Primary screen in NF54 nanoGlo assay, in single point, at 2uM, 72h; a lower Z score goes with more inhibition). Details: timepoint 72 hour.
Type: functional, Erythrocyte

SMILES | % Inhibition [%] | Z score
CCc1n[nH]c2c1CN(CC(=O)N1CCc3ccccc31)CC2 | -5 | 0.92
COCc1ccc(C(=O)N[C@@H]2COCC[C@@H]2OCCN(C)C)s1 | -7 | 1.2
CC(C)(C)n1cc(C(=O)N2CCC3(CC2)NC(=O)NC3=O)cn1 | -3 | 0.41
COCCNC(=O)NC(=O)COC(=O)C1CCC1 | -11 | 1.97
CN(C)C(=O)CC1(CC(=O)Nc2nccs2)CCCCC1 | 1 | -0.26
CCC(=O)N[C@@H]1c2ccccc2C2(CCN(Cc3ccc(OC)c(O)c3)CC2)[C@H]1OC | -11 | 1.39
CC(Cn1ccnc1)NC(=O)C1CC=CCC1 (stereo not drawn) | -3 | 0.4
Cc1nnc([C@H](C)NC(=O)c2cc3c(s2)CCCC3)o1 | -15 | 1.89
COc1cc(-c2cccc(C(=O)N[C@H]3CCOC3)c2)cc(OC)c1OC | -24 | 2.14
Cc1n[nH]c(=O)c(C(=O)Nc2cc(C3CCCCC3)[nH]n2)c1C | -7 | 0.99
CCc1ncc(NC(=O)N2CC[C@H](OCC(C)C)C2)cn1 | -1 | 0.13
N#Cc1c(NC(=O)CC2(C(=O)O)CCCC2)sc2c1CCC2 | -9 | 1.85
CCOC(=O)c1c(S(=O)(=O)NCC(=O)N2CCN(c3cccc(C)c3C)CC2)c(C)n(CC)c1C | -7 | 1.08
Cc1ccc(NC(=O)NC[C@@]2(C)CCCCO2)c(N(C)C)n1 | -3 | 0.53
Cc1ccc(CNS(=O)(=O)c2cc3c(s2)CCN(C(=O)C2CCC2)C3)cc1 | 8 | -1.45
Cc1ccc(C#N)c(NCc2nnc3n2CCCCC3)n1 | 3 | -0.36
COc1ccc(C(=O)N[C@@H]2C[C@@H](CO)N(C)C2)c(OC)c1 | 8 | -1.33
Cc1ncc(S(C)(=O)=O)c(NCCn2nc(C)nc2C)n1 | -17 | 1.59
Nc1nc2c(c(=O)n1CCCn1ccnc1)CCCC2 | -3 | 0.46
O=C1C[C@@H]2CCN(C(=O)COc3ccccc3)C[C@@H]2CCOc2ccccc2N1 | -2 | 0.22
CN(Cc1nncn1C)c1nc(C2CCCCC2)ns1 | 30 | -3.36
C[C@H]1CN(C(=O)c2cc(C(F)(F)F)n[nH]2)C[C@]1(O)C1CCC1 | 4 | -0.67
Cc1cnccc1-c1cccc(-c2ccn(CCN(C)C)n2)c1 | -5 | 1.04
Cc1nn(-c2ccc(F)cc2)c2c1c(=O)c(C(=O)NC1CCCCCC1)cn2C | -4 | 0.59
COc1ccc(C2(CC(=O)N3CCCC(C(C)=O)C3)CC(=O)N(C3CC3)C2=O)cc1 (stereo not drawn) | 5 | -0.69
O=C(CN1C(=O)[C@@H]2CCCCN2c2ccc(C(=O)N3CCCCC3)cc21)NC1CCCCCCC1 | -14 | 1.25
CCc1noc2nc(C)nc(NCc3ccco3)c12 | 8 | -0.89

SMILES | % Inhibition [%] | Z score
CCn1nc(C(=O)N2CC(=O)Nc3ccccc32)cc1C | 0 | 0.01
N#Cc1ccc(N[C@H]2CCCN(Cc3ccc(F)cc3F)C2=O)cn1 | 36 | -5.14
Cc1ccc2c(c1)C(NCc1nnc3n1CCCC3)C(C)C2 (stereo not drawn) | -2 | 0.4
Cc1cc(NC(=O)CN2CCCC[C@@H]2CNC(=O)OC(C)(C)C)no1 | -15 | 2.89
CCn1cc(C(=O)NC/C=C(\C)CCC=C(C)C)cn1 | -1 | 0.1
Cc1cc(C)cc(CCNC(=O)NCc2cnc(C)s2)c1 | 8 | -0.93
O=C(c1ccc2ncccc2c1)N1CC[C@@]2(CCCN(CC3CC3)C2=O)C1 | -5 | 0.89
O=S(=O)(CCC1CCCC1)N1CCCC[C@H]1c1ncc[nH]1 | 13 | -2.2
CC(=O)Nc1cccc(NC(=O)c2cc3c(s2)CCCCC3)c1 | -15 | 1.66
O=C1CCc2cc(S(=O)(=O)N3CCOCC3)ccc2N1 | -8 | 0.64
NC(=O)c1nc(CNC(=O)C[C@@H](c2ccccc2)c2cccc(Cl)c2)no1 | -12 | 2.04
CNC(=O)c1cc2c(s1)CCN(C(=O)[C@H]1CCCN(C(N)=O)C1)C2 | -1 | 0.19
COC(=O)c1coc([C@H](CO)N(C)C)n1 | -6 | 0.81
CC(C)(C)C(O)CNC(=O)[C@H](O)c1ccccc1Cl (stereo partly drawn) | 18 | -2.08
COc1ccccc1Oc1c(CN(Cc2ccco2)C(=O)C(C)C)c(C)nn1-c1ccccc1 | -8 | 1.35
Cc1noc(C)c1S(=O)(=O)N1CCCC[C@H]1c1noc(COCc2ccccc2)n1 | 1 | -0.07
CC1CCN(C(=O)[C@H](C2CCCC2)N2CCN(C(=O)c3ccc(Cl)cc3)CC2)CC1 | 6 | -1.01
O=C(NC[C@@H](CO)Cc1ccc(Br)cc1)c1nnn(C2CC2)c1C(F)(F)F | -2 | 0.38
O=C1CC(C2CCC2)=NN1c1ccncc1F | -11 | 1.12
CC(C)CC(=O)N1CCOC(=O)C1(C)C | 8 | -1.07
Cc1cc(CN(C)C(=O)c2ncsc2C(C)C)no1 | -2 | 0.27
CC(NC(=O)N[C@H]1CCO[C@@H]1c1ccncc1)C1Oc2ccccc2C1C (stereo partly drawn) | -1 | 0.19
O=C1CN(S(=O)(=O)c2ccc(C(=O)NCCc3ccccc3F)cc2)CCN1 | -10 | 1.28
O=C(CS(=O)(=O)c1ccc2c(c1)S(=O)(=O)N=CN2)Nc1cccc2ccccc12 | -8 | 1.1
Cc1nn(-c2ccc(C(=O)NCc3cccnc3)cn2)c(C)c1C | -23 | 2.65
Cc1c(C(F)(F)F)n[nH]c1C(=O)N(C)Cc1ccc(Br)cc1F | -14 | 2.11
O=C(c1ccccc1F)N(Cc1csc(COc2ccc(Cl)cc2)n1)C1CC1 | -1 | 0.16
